# The RNAGym collection of RNA variant scans (doi:10.1093/nar/gkz1192)
# Read counts are not given, so values of variants with three or more changes are uncertain.
# B1: CPEB3 Ribozyme (parent)
# chain: UAACAGGGGGCCACAGCAGAAGCGUUCACGUCGCAGCCCCUGUCAGAUUCUGGUGAAUCUGCGAAUUCUGCUGUAUAUCUC
# Variants of: B1
# Assay: self-cleavage, relative activity (ratio to wild type); higher = more cleavage; in vitro, sequencing
# Procedure, shortened: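 CPEB3 self-cleaving ribozyme mutant libraries were made by rounds of error-prone PCR, barcoded, and transcribed in vitro with T7 RNA polymerase for 5 hours at 37°C. Cleavage occurred during transcription and a 15 min DNase I step before EDTA stop. RNAs were reverse transcribed with template switching and Illumina-sequenced, with DNA sequencing mapping barcodes to variants. Relative activity is the variant's cleaved/total read fraction divided by wild type's (minimum 5 reads), averaged across three batches.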
row,Variant,self-cleavage
1,UAACAGGGGGCCACAGCAGAGGCGUACACGUCGCAGCCCCUGUUAGGUUCUGGUGAAUCUGCGAAUUCUGCUGUAUAUCUC,0.15
2,UAACAGGGGGCCACAGCAGAGGCGUACACGUCGCAGCCCCUGUCAGAUUCUGGUGAAUCUGUGAAUUCUGCUGUAUAUCUC,0.09
3,UAACAGGGGGCCACAGCAGAGGCGUACACGACGCUGCCCCUGUCAGAUUCUGGUGAAUCUGAGAAUUCUGCUGUAUAACUC,0.1
4,UAACAGGGGGCCACAGCAGAGGCGUACACGGCGCAGCCCCAGUCAGAUUCUGGUGAAUCUGCGAAUUCUGCUGUAUAUCUC,0.33
5,UAACAGGGGGCCACAGCAGAGGCGUACACGUCGCAGCCCCCGUCAGAUUCUGGUGAAUCUGCGAAUUCUGCUGUGUAUCUC,0.47
6,UAACAGGGGGCCACAGCAGAGGCGUACACGUCGCAGCCCCGGUCUGAUUCUGGUGAAUCUGCUAAUUCCGCUGUAUAUCUC,0.04
7,UAACAGGGGGCCACAGCAGAGGCGUACACGUCGCAGCCCCUGACAGAUCCUGGUGAAUCUGCGAAUUCUGCUGUAUAUCUC,0.1
8,UAACAGGGGGCCACAGCAGAGGCGUACACGUCGCAGCCCCUGCCAGAUUCUGGUGGAUCUGCGGAUUCUGCUGUAUGUCUC,0.03
9,UAACAGGGGGCCACAGCAGAGGCGUACACGUCGCAGCCCCUGCCAGAUUCAGGUGAAUCUGCGAAUUCUGCUGUAUAUCUC,0.08
10,UAACAGGGGGCCACAGCAGAGGCGUACACGUCGCAGCCCCUGUCAGACUCUGGUGAAUCUGCUAAUUCUGCUGUAUAUCUC,0.08
11,UAACAGGGGGCCACAGCAGAGGCGUACACGUCGCAGCCCCUGUCAGAUUCUGGUGAAACUGCGAAUUCUGCUGUAUAUCUC,0.18
12,UAACAGGGGGCCACAGCAGAGGCGUACACGUCGCAGCCCCUGUCAGAUUCUGGUGAAUCAGCGAAUUCUGCUGUAUAUCUC,0.09
13,UAACAGGGGGCCACAGCAGAGGCGUACACGUCGCAGCCCCUGUCAGAUUCUGGUGAAUCAGCGAAUUCUGCUGUAUAUCCC,0.2
14,UAACAGGGGGCCACAGCAGAGGCGUACACGUCGCAGCCCCUGUCAGAUUCUGGUGAAUCCGCGAACUCUGCAGUAUAUCAC,0.27
15,UAACAGGGGGCCACAGCAGAGGCGUACACGUCGCAGCCCCUGUCAGAUUCUGGUGAAUCUGCGAAUUCUGCAGUAUAUCUC,0.18
16,UAACAGGGGGCCACAGCAGAGGCGUCCCCGUCGCGGCCCCUGUCAGAUUCUGGUGAAUCUGCGAAUUCUGCUGUAUAUCUC,0.26
17,UAACAGGGGGCCACAGCAGAGGCGUCCGCGUCGCAGCCCCUGUCAGAUUUUGGUGAUUCUGCGAAUUCUGCUGUAUAUCUC,0.09
18,UAACAGGGGGCCACAGCAGAGGCGUCCUCGUCGCAGCCCCUGUCAGAUUCUGGUGAAUCUGCGAAUUCUGCUGUAUAUCUC,0.19
19,UAACAGGGGGCCACAGCAGAGGCGUCCACGUCGCGGCCCCUGUCAGAUUCUGGUGAAUCUGCGAAUUCUGCUGUAUAUCUC,0.65
20,UAACAGGGGGCCACAGCAGAGGCGUCCACGUCGCGGCCCCUGUCAGGUUCUGGUGAAUCUGCGAAUUCUGCUGUAUAUCUC,0.46
21,UAACAGGGGGCCACAGCAGAGGCGUCCACGUCGCUGCCCCUGUCAGAUUAUGGUGAAUCUGCGAAUUCUGCUGUAUUUCUC,0.28
22,UAACAGGGGGCCACAGCAGAGGCGUCCACGUCGCAGCCCCUGUCGGAUUCUGGUGAGUCUGCGAAUUCUGCUGUAUAUCUC,0.25
23,UAACAGGGGGCCACAGCAGAGGCGUCCACGUCGCAGCCCCUGUCUGAUUCUGGUGAAUCUGCGAAUUCUGCUGUAUAUCUC,0.19

row,Variant,self-cleavage
1,UAACAGGGGGCCACAGCAGAGGCGUCCACGUCGCAGCCCCUGUCUGCUUCCGGUGAAUCUGCGAAUUCUGCUGUAAAUCUC,0.1
2,UAACAGGGGGCCACAGCAGAGGCGUCCACGUCGCAGCCCCUGUCAGAUUCUGGUGUAUCUGCGAACUCCGCUGUAUAUCUC,0.11
3,UAACAGGGGGCCACAGCAGAGGCGUCCACGUCGCAGCCCCUGUCAGAUUCUGGUGAAUCUGCGGGUUCUGCUGUAUAUCUC,0.23
4,UAACAGGGGGCCACAGCAGAGGCGUCCAUGUCGCAGCCCCUGUCAGAUUCUGGUGAAUCUGCGGAUUCCGCUGUAUAUCUC,0.26
5,UAACAGGGGGCCACAGCAGAGGCGUCCACGUCGCAGGCCAUGUCAGAUUCUGGUGAAUCUGCGAAUACUGCUGUAUAUCUC,0.07
6,UAACAGGGGGCCACAGCAGAGGCGUCCACGUCGCAGGCCCCGUCAGAUUCUGGCGAAUCUGCGAGUUCUGCUGUAAAUCUC,0
7,UAACAGGGGGCCACAGCAGAGGCGUCCACGUCGCAGCUCCUGUCAGAUUCUGGUGGAUCUGCGAAUUCUGCUGUGUAUCUC,0.04
8,UAACAGGGGGCCACAGCAGAGGCGUCCACGUCGCAGCCCCUGUAAGAUCCUGGUGAAUCUGCGAAUUCUGCUGUAUAUCUC,0.1
9,UAACAGGGGGCCACAGCAGAGGCGUCCACGUCGCAGCCCCUGUCAGAUUGUGGAGAAUCUGCGAAUUCUGCUGUAUAUCUC,0.09
10,UAACAGGGGGCCACAGCAGAGGCGUCCACGUCGCAGCCCCUGUCAGAUUCUGGUGAAUCUGUGAAUUCUGCCGUAUAUCUC,0.1
11,UAACAGGGGGCCACAGCAGAGGCGUCCACGUCCCAGCCCCUGUCUGAUUCUGGUGAAUCUGCGAAUUCUGCUGUAUAUCUC,0.06
12,UAACAGGGGGCCACAGCAGAGGCGUCCACGUCGCAACCCUUGUCGGAUUCUGGUGAAUCUGCGAAUUCCGCUGUAUAUCUC,0.16
13,UAACAGGGGGCCACAGCAGAGGCGUCCACGCCGCAGCCCCUGUCAGAUUCUGGUGAAUCUGCGAAUUCUGCUGUAUAUCUC,0.22
14,UAACAGGGGGCCACAGCAGAGGCGUCCACGUCGCAGCCCCAGUCAGAUCCUGGUGAAUCUGCGAAUUCUGCCGUAUAUCUC,0.31
15,UAACAGGGGGCCACAGCAGAGGCGUCCACGUCGCAGCCCCCGUCAGAUUCAGGCGAAUCUGCGAAUUCUGCUGUUUAUCUC,0.33
16,UAACAGGGGGCCACAGCAGAGGCGUCCACGUCGCAGCCCCUGUCAGACUCUGGUGAAUCUGCGAAUUCUGCUGUAUAUCUC,0.29
17,UAACAGGGGGCCACAGCAGAGGCGUCCACGUCGCAGCCCCUGUCAGACUCUGGUGAAUCUGCGAAUUCUGCCGUAUAUCUC,0.23
18,UAACAGGGGGCCACAGCAGAGGCGUCCACGUCGCAGCCCCUGUCAGAUCCUGGUGAAUCUGCGAAUUCUGCUGUAUAUCUC,0.15
19,UAACAGGGGGCCACAGCAGAGGCGUCCACGUCGCAGCCCCUGUCAGAUUCCGGUGAAUCUGCGAAAUCUGCUGUAUUUCUC,0.08
20,UAACAGGGGGCCACAGCAGAGGCGUCCACGUCGCAGCCCCUGUCAGAUUCUGGCGAAUCUGCGAAUACUGCUGUAUAUCUC,0.32
21,UAACAGGGGGCCACAGCAGAGGCGUCCACGUCGCAGCCCCUGUCAGAUUCUGGUGAAUCAGCGAAUUCUGCUGUACAACUC,0
22,UAACAGGGGGCCACAGCAGAGGCGUCCACGUCGCAGCCCCUGUCAGAUUCUGGUGAAUCCGCGAAUUCUGCUGUAUAUCUC,0.34
23,UAACAGGGGGCCACAGCAGAGGCGUCCACGUCGCAGCCCCUGUCAGAUUCUGGUGAAUCCGCGAAUUCCGCUAUAUAUCUC,0.13

row,Variant,self-cleavage
1,UAACAGGGGGCCACAGCAGAGGCGUCCACGUCGCAGCCCCUGUCAGAUUCUGGUGAAUCUGCGAAUUCAGCUGUAUAUCCC,0.46
2,UAACAGGGGGCCACAGCAGAGGCGUGCACGACGCAGCCCCUGUCAGACUCUGGUGAAUCUGCGAUUUCUGCUGUAUAUCUC,0.06
3,UAACAGGGGGCCACAGCAGAGGCGUGCACGUCGCAGCCCCUGUCAGAUUCAGGUGAAUCUGCGAAUUCUGCUGUAUAUCUC,0.16
4,UAACAGGGGGCCACAGCAGAGGCGUGCACGUCGCAGCCCCUGUCAGAUUCUGGUGAAUCUGCGAAUUCUGCUGUAUACCUC,0.16
5,UAACAGGGGGCCACAGCAGAGGCGUUCACGACGCGGCCCCUGUUAGAUUCCGGUGAAUCUGCGAAUUCUGCUGUAUACCCC,0.06
6,UAACAGGGGGCCACAGCAGAGGCGUUCACGACGCAGCCCCUGUCUGAUUCUGGUGAAUCUGCGAAUUCUGCUGUAUAUCUC,0.33
7,UAACAGGGGGCCACAGCAGAGGCGUUCACGACGCAGCCCCUGUCAGAUUCUGGUGGAUCUGCGAAUUCUGCUGUAUAUCUC,0.53
8,UAACAGGGGGCCACAGCAGAGGCGUUCACGACGCAGCCCCUGUCAGAUUCUGGUGAAUCUGCGGUUUCUGCUGUAUAUCUC,0.15
9,UAACAGGGGGCCACAGCAGAGGCGUUCACGACGCAGCCCCUGUCAGAUUCUGGUGAAUCUGCGAGUUCUGCUGUAUAUCUC,0.22
10,UAACAGGGGGCCACAGCAGAGGCGUUCACGACGCAGCCCCUGUCAGAUUCUGGUGAAUCUACGAAUUCUGCUGUAUACCUC,0.15
11,UAACAGGGGGCCACAGCAGAGGCGUUCACGACGCAGCCCCGGUCAGAUUCUGGUGAAUCUGCGAACUCUGCUGUAUACCCC,0.08
12,UAACAGGGGGCCACAGCAGAGGCGUUCACGACGCAGCCCCUGUCAGACUCUGGUGAAUCUGCGAAUUCUGCUGUACACCUC,0.13
13,UAACAGGGGGCCACAGCAGAGGCGUUCACGACGCAGCCCCUGUCAGAUUCUGGAGAAUCUGCCAAUUCUGCUGUAUACCUC,0.26
14,UAACAGGGGGCCACAGCAGAGGCGUUCACGACGCAGCCCCUGUCAGAUUCUGGUGAAUCUGCGAAUUCUGCUGUAUAACUC,0.41
15,UAACAGGGGGCCACAGCAGAGGCGUUCACGCCGCGGCCCCUGUCAGAUUCUGGUGAAUCUGCGAAUUCUGCUGUAUAUCUC,0.32
16,UAACAGGGGGCCACAGCAGAGGCGUUCACGCCGCUGCCCCUGUCAGAUUCUGGUGAAUCUGCGAAUUCUGCUGUAUAUCUC,0.22
17,UAACAGGGGGCCACAGCAGAGGCGUUCACGCCGCUGCCCCUGUCAGAUUCUGGUGAAUCAGCGAAUUCUGCUGUAUAUCUC,0.05
18,UAACAGGGGGCCACAGCAGAGGCGUUCACGCCGCAGCCCCUGUCUGAUUCUGGUGAAUCUGCGAAUUCUGCUGUAUAUCUC,0.22
19,UAACAGGGGGCCACAGCAGAGGCGUUCACGCCGCAGCCCCUGUCUGAUUCUGGUGAAUAUGCGAAUUCUGCUGUAUAUCUC,0.08
20,UAACAGGGGGCCACAGCAGAGGCGUUCACGCCGCAGCCCCUGUCAGUUUCUGGUGAAUCUGCGGAUUCUGCUGUAUAUCUC,0.24
21,UAACAGGGGGCCACAGCAGAGGCGUUCACGCCGCAGCCCCUGUCAGAUUCUGGUGAGUCUGCGAAUUCUGCUGUAUAUCUC,0.17
22,UAACAGGGGGCCACAGCAGAGGCGUUCACGCCGCAGCCCCUGUCAGAUUCUGGUGAAUCUGCGAAUUCUGCUGUGUAUCUC,0.09
